# The other results are listed elsewhere or left out.
# B1: LecB PA7 (Pseudomonas aeruginosa) (protein)
# chain: MATQGVFTLPANTRFGVTAFANSSATQTVKVLVNNETAATFTGQSTNNAVIGSQVLNSGGGGKVQIQVSVNGRSSDLVSAQVILANELNVALVGSEDSTDNDYNDAVVVINWPLG
# What was measured:
# Experiment in all cases: glycan array binding signal (z-score within array); higher = stronger binding
# Details in all cases: glycan notation: IUPAC condensed, linker removed
# [1] = biological target: Fuc(a1-2)[GalNAc(a1-3)]Gal(b1-3)GlcNAc(b1-6)GalNAc
# Method in brief: (§1)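 The Consortium for Functional Glycomics database supplied 3228 glycan arrays, of which those lacking an available protein sequence were dropped. The binding signal, a within-array Z-score, was averaged across arrays of the same protein sequence and across linkers. Negative scores can be read as non-binding.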
# [2] = biological target: Fuc(a1-2)[GalNAc(a1-3)]Gal(b1-4)Glc
# Method in brief: as §1
# [3] = biological target: Fuc(a1-2)[GalNAc(a1-3)]Gal(b1-4)GlcNAc
# Method in brief: as §1
# [4] = biological target: Fuc(a1-2)[GalNAc(a1-3)]Gal(b1-4)GlcNAc(b1-2)Man
# Method in brief: as §1
# [5] = biological target: Fuc(a1-2)[GalNAc(a1-3)]Gal(b1-4)GlcNAc(b1-2)Man(a1-3)[Fuc(a1-2)[GalNAc(a1-3)]Gal(b1-4)GlcNAc(b1-2)Man(a1-6)]Man(b1-4)GlcNAc(b1-4)GlcNAc
# Method in brief: as §1
# [6] = biological target: Fuc(a1-2)[GalNAc(a1-3)]Gal(b1-4)GlcNAc(b1-2)Man(a1-3)[Fuc(a1-2)[GalNAc(a1-3)]Gal(b1-4)GlcNAc(b1-2)Man(a1-6)]Man(b1-4)GlcNAc(b1-4)[Fuc(a1-6)]GlcNAc
# Method in brief: as §1
# [7] = biological target: Fuc(a1-2)[GalNAc(a1-3)]Gal(b1-4)GlcNAc(b1-3)Gal(b1-4)GlcNAc
# Method in brief: as §1
# [8] = biological target: Fuc(a1-2)[GalNAc(a1-3)]Gal(b1-4)GlcNAc(b1-3)Gal(b1-4)GlcNAc(b1-3)Gal(b1-4)GlcNAc
# Method in brief: as §1
# [9] = biological target: Fuc(a1-2)[GalNAc(a1-3)]Gal(b1-4)GlcNAc(b1-3)GalNAc
# Method in brief: as §1
# [10] = biological target: Fuc(a1-2)[GalNAc(a1-3)]Gal(b1-4)GlcNAc(b1-3)[Fuc(a1-2)[GalNAc(a1-3)]Gal(b1-4)GlcNAc(b1-6)]GalNAc
# Method in brief: as §1
# [11] = biological target: Fuc(a1-2)[GalNAc(a1-3)]Gal(b1-4)GlcNAc(b1-6)GalNAc
# Method in brief: as §1
# [12] = biological target: Fuc(a1-2)[GalNAc(a1-3)]Gal(b1-4)[Fuc(a1-3)]GlcNAc
# Method in brief: as §1
# [13] = biological target: Fuc(a1-2)[GalNAc(a1-3)]Gal(b1-4)[Fuc(a1-3)]GlcNAc(b1-3)GalNAc
# Method in brief: as §1
# [14] = biological target: Fuc(a1-2)[GalNAc(a1-4)]Gal(b1-4)GlcNAc
# Method in brief: as §1
# [15] = biological target: Fuc(a1-2)[GalNAc(b1-3)]Gal
# Method in brief: as §1
# [16] = biological target: Fuc(a1-3)GlcNAc
# Method in brief: as §1
# [17] = biological target: Fuc(a1-3)[Gal(b1-4)]Glc6S
# Method in brief: as §1
# [18] = biological target: Fuc(a1-3)[Gal(b1-4)]GlcNAc
# Method in brief: as §1
# [19] = biological target: Fuc(a1-3)[Gal(b1-4)]GlcNAc(b1-2)Man
# Method in brief: as §1
# [20] = biological target: Fuc(a1-3)[Gal(b1-4)]GlcNAc(b1-2)Man(a1-3)[Fuc(a1-3)[Gal(b1-4)]GlcNAc(b1-2)Man(a1-6)]Man(b1-4)GlcNAc(b1-4)GlcNAc
# Method in brief: as §1
# [21] = biological target: Fuc(a1-3)[Gal(b1-4)]GlcNAc(b1-2)Man(a1-3)[Fuc(a1-3)[Gal(b1-4)]GlcNAc(b1-2)Man(a1-6)]Man(b1-4)GlcNAc(b1-4)[Fuc(a1-6)]GlcNAc
# Method in brief: as §1
# [22] = biological target: Fuc(a1-3)[Gal(b1-4)]GlcNAc(b1-3)Gal(b1-3)[Fuc(a1-4)]GlcNAc
# Method in brief: as §1
# [23] = biological target: Fuc(a1-3)[Gal(b1-4)]GlcNAc(b1-3)Gal(b1-4)[Fuc(a1-3)]GlcNAc
# Method in brief: as §1
# [24] = biological target: Fuc(a1-3)[Gal(b1-4)]GlcNAc(b1-3)Gal(b1-4)[Fuc(a1-3)]GlcNAc(b1-3)Gal(b1-4)[Fuc(a1-3)]GlcNAc
# Method in brief: as §1
# [25] = biological target: Fuc(a1-3)[Gal(b1-4)]GlcNAc(b1-3)GalNAc
# Method in brief: as §1
# [26] = biological target: Fuc(a1-3)[Gal(b1-4)]GlcNAc(b1-6)GalNAc
# Method in brief: as §1
# [27] = biological target: Fuc(a1-3)[Gal(b1-4)]GlcNAc(b1-6)[Gal(b1-3)GlcNAc(b1-3)]Gal(b1-4)Glc
# Method in brief: as §1
# [28] = biological target: Fuc(a1-3)[Gal(b1-4)]GlcNAc6S
# Method in brief: as §1
# [29] = biological target: Fuc(a1-3)[Gal3S(b1-4)]Glc
# Method in brief: as §1
# [30] = biological target: Fuc(a1-3)[Gal3S(b1-4)]GlcNAc
# Method in brief: as §1
# [31] = biological target: Fuc(a1-3)[Gal3S(b1-4)]GlcNAc6S
# Method in brief: as §1
# [32] = biological target: Fuc(a1-3)[GalNAc(b1-4)]GlcNAc
# Method in brief: as §1
# [33] = biological target: Fuc(a1-3)[GalNAc(b1-4)]GlcNAc6S
# Method in brief: as §1
# [34] = biological target: Fuc(a1-4)GlcNAc
# Method in brief: as §1
# [35] = biological target: Fuc(b1-3)GlcNAc
# Method in brief: as §1
# [36] = biological target: Gal(a1-2)Gal
# Method in brief: as §1
# [37] = biological target: Gal(a1-3)Gal
# Method in brief: as §1
# [38] = biological target: Gal(a1-3)Gal(b1-3)GlcNAc
# Method in brief: as §1
# [39] = biological target: Gal(a1-3)Gal(b1-3)GlcNAc(b1-2)Man
# Method in brief: as §1
# [40] = biological target: Gal(a1-3)Gal(b1-3)GlcNAc(b1-2)Man(a1-3)[Gal(a1-3)Gal(b1-3)GlcNAc(b1-2)Man(a1-6)]Man(b1-4)GlcNAc(b1-4)GlcNAc
# Method in brief: as §1
# [41] = biological target: Gal(a1-3)Gal(b1-3)GlcNAc(b1-3)GalNAc
# Method in brief: as §1
# [42] = biological target: Gal(a1-3)Gal(b1-3)GlcNAc(b1-6)GalNAc
# Method in brief: as §1
# [43] = biological target: Gal(a1-3)Gal(b1-3)[Fuc(a1-4)]GlcNAc(b1-2)Man(a1-3)[Gal(a1-3)Gal(b1-3)[Fuc(a1-4)]GlcNAc(b1-2)Man(a1-6)]Man(b1-4)GlcNAc(b1-4)GlcNAc
# Method in brief: as §1
# [44] = biological target: Gal(a1-3)Gal(b1-4)Glc
# Method in brief: as §1
# [45] = biological target: Gal(a1-3)Gal(b1-4)GlcNAc
# Method in brief: as §1
binder,measurement,setting,value
B1,glycan array binding signal (z-score),[1],-0.506
same,glycan array binding signal (z-score),[2],-0.412
same,glycan array binding signal (z-score),[3],-0.431
same,glycan array binding signal (z-score),[4],-0.475
same,glycan array binding signal (z-score),[5],-0.312
same,glycan array binding signal (z-score),[6],0.04
same,glycan array binding signal (z-score),[7],-0.218
same,glycan array binding signal (z-score),[8],-0.381
same,glycan array binding signal (z-score),[9],-0.487
same,glycan array binding signal (z-score),[10],-0.073
same,glycan array binding signal (z-score),[11],-0.472
same,glycan array binding signal (z-score),[12],0.409
same,glycan array binding signal (z-score),[13],-0.44
same,glycan array binding signal (z-score),[14],1.57
same,glycan array binding signal (z-score),[15],-0.347
same,glycan array binding signal (z-score),[16],2.73
same,glycan array binding signal (z-score),[17],-0.113
same,glycan array binding signal (z-score),[18],0.928
same,glycan array binding signal (z-score),[19],-0.179
same,glycan array binding signal (z-score),[20],1.6
same,glycan array binding signal (z-score),[21],-0.113
same,glycan array binding signal (z-score),[22],0.446
same,glycan array binding signal (z-score),[23],2.19
same,glycan array binding signal (z-score),[24],3.54
same,glycan array binding signal (z-score),[25],0.383
same,glycan array binding signal (z-score),[26],-0.367
same,glycan array binding signal (z-score),[27],0.225
same,glycan array binding signal (z-score),[28],-0.27
same,glycan array binding signal (z-score),[29],0.709
same,glycan array binding signal (z-score),[30],0.667
same,glycan array binding signal (z-score),[31],0.336
same,glycan array binding signal (z-score),[32],1.34
same,glycan array binding signal (z-score),[33],0.753
same,glycan array binding signal (z-score),[34],2.33
same,glycan array binding signal (z-score),[35],0.341
same,glycan array binding signal (z-score),[36],-0.497
same,glycan array binding signal (z-score),[37],-0.489
same,glycan array binding signal (z-score),[38],-0.486
same,glycan array binding signal (z-score),[39],-0.498
same,glycan array binding signal (z-score),[40],0.509
same,glycan array binding signal (z-score),[41],-0.498
same,glycan array binding signal (z-score),[42],-0.493
same,glycan array binding signal (z-score),[43],1.57
same,glycan array binding signal (z-score),[44],-0.483
same,glycan array binding signal (z-score),[45],-0.507

# — the supplement of paper PMC8728848
